# Measured values: the RNAGym collection of RNA variant scans (doi:10.1073/pnas.2313332121)
# This sample is rich in variants without activity.
# B1: TPR 5TU (parent)
# chain: GGAUCUUCUCGAUCUAACAAAAAAGACAAAUCUGCCACAAAGCUUGAGAGCAUCUUCGGAUGCAGAGGCGGCAGCCUUCGGUGGCGCGAUAGCGCCAACGUUCUCAACUAUGACACGCAAAACGCGUGCUCCGUUGAAUGGAGUUUAUCAUG
# Variants of: B1
# Experiment: polymerase ribozyme fitness, log enrichment relative to wild type (log ratio); higher = more active; in vitro selection for triplet polymerase activity
# Procedure, shortened: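 Libraries of mutants in each subunit of a heterodimeric triplet polymerase ribozyme were generated by PCR and transcribed. In triplicate, each went through one in vitro selection round: annealing with biotinylated primer, partner subunit and triplets; frozen incubation at −7 °C; gel excision of extended constructs; streptavidin-bead capture; RT-PCR. Fitness, taken from Illumina sequencing of input and output libraries, is the logarithm of a genotype's enrichment over wild-type enrichment, averaged across replicates with inverse-variance weights. The logarithm is base 2, and genotypes needed ≥10 input reads and ≥1 read per output to be kept.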
row,Variant,polymerase ribozyme fitness (log ratio)
1,U6G G34U G84U U101G U151C,≤ -4.2
2,U7C C27U C38A C96U G117A U135A,≤ -4.2
3,U7C C8G A30C C85G U134A,≤ -4.2
4,U6G G11U A19C G50A C114U G141A,≤ -4.2
5,U6C G48C G65A U78A G80A G88C A106G U127C G152U,≤ -4.2
6,U6G U13G C57G,-2.26
7,U6G U90G,≤ -4.2
8,U6G C72U U90G C93U,≤ -4.2
9,U7C A19C A21G G71A G86A A121U G141U U146C,≤ -4.2
10,U7C A20U C69G U78G G94A,≤ -4.2
11,U7A C35U C85G U102G,≤ -4.2
12,U7A A110C A138U,≤ -4.2
13,U6C A29C C51A C95G U148G,≤ -4.2
14,U6C C54U C76U,-2.15
15,U6G A41C A49G C95G,-2.03
16,U6C C27U G50C A52G G58A C87U,≤ -4.2
17,U7A G71A C96G,≤ -4.2
18,U6G C14G G48U U55A A60U G83U G92C C108A U134A G140U U146G,≤ -4.2
19,U6G C18U A37C A64U G81A G83A A98U G117A C123G,≤ -4.2
20,U6C U7G A40C A52G C85U G100C G117U C118U,≤ -4.2
21,U7A G83A A121G U145G U148G,≤ -4.2

row,Variant,polymerase ribozyme fitness (log ratio)
1,U6C U31G G50C C69G G94C A119U U151A,≤ -4.2
2,U7A A23U A29G G50C C54A G88A A138U,≤ -4.2
3,U6G C51A G83C,-2.97
4,U6G C8U A20U G94C A121U U127C,≤ -4.2
5,U7A C76U G94A C105U U151A,-3.84
6,U6G C14U A19U G84U G100A,≤ -4.2
7,U7C A16C C35U C63U A121G G133C,≤ -4.2
8,U7A G86A A89C G94A U151G,≤ -4.2
9,U6G G11A A24U U53A G92U C93G C108U A115U,≤ -4.2
10,U6C A22U G42U U45G C85G C99A G141A,≤ -4.2
11,U7A A49U A52C G83U A91U G136A,≤ -4.2
12,U6G G94C C123A,0.0628
13,U6G G88A,-4.11
14,U7A U9G A37C G50C C99G C116U C125G A138C U148G,≤ -4.2
15,U6G A39U A47G C99G,≤ -4.2
16,U6G G59C,0.358
17,U6G A19G C87A G94C G124U A150C,≤ -4.2
18,U6G A39G G86U U90C A110G,≤ -4.2
19,U6C A21U U101A U104A U148A,≤ -4.2
20,U7A G11A A41G A66C U77C C85U A106C U151A,≤ -4.2
21,U6C A29U C85A U90G C95U,≤ -4.2

row,Variant,polymerase ribozyme fitness (log ratio)
1,U7C C10U A26U C69A U77C G88A A106G G143U,≤ -4.2
2,U7A A28U G46C G50A C95G C103G C129A U144C,≤ -4.2
3,U6C C18G A20G A40U G68U G92A A97G,≤ -4.2
4,U7A C14G G25C C32G A106C,≤ -4.2
5,U6G A28U,-3.76
6,U7A C57G G59A U61G C63G G92C G100U C103G,≤ -4.2
7,U6G A12G A16U A41U U61A G84U U127G U134C A147C,≤ -4.2
8,U7C C38A C51G G83U G84A,≤ -4.2
9,U6C A41C C79G,≤ -4.2
10,U7A A49C A66G U148A,≤ -4.2
11,U6C C8G U13G A29U U31A G74C U146A U148G U151G,≤ -4.2
12,U6G A29C C57A A60U A66G C95A A110C C114U,≤ -4.2
13,U6C C129G,-3.13
14,U6C G68U C69G C85U,≤ -4.2
15,U7A A29C A49G U55G U77C G83C G124U,≤ -4.2
16,U6G G62U G80C C87U A89U G126U,≤ -4.2
17,U7A A28U G67C C87U C96G C123A,≤ -4.2
18,U6G C57G C76U G86U U130A A138G,≤ -4.2
19,U7C C18G G25C G50A U53G C95G G140U U151C,≤ -4.2
20,U7C C8G A28U G59A C96A C105G G126A,≤ -4.2
21,U7C A21U A28U C51A C57A A97U,≤ -4.2

row,Variant,polymerase ribozyme fitness (log ratio)
1,U6G U13G U53A G83A A97U A106U C108G,≤ -4.2
2,U6G U33G C35U A52C C57U C93G A113U U144C,≤ -4.2
3,U6C A16U C35G C57G G81U C85G A91U,≤ -4.2
4,U7A A24C A47C U109C A120U,≤ -4.2
5,U6G C93G,-3.18
6,U6C A49G C87G C96U G117U C118A,≤ -4.2
7,U7C C27U A39G C54U U55A G74U C85U C149G,≤ -4.2
8,U7A A28U A40U U55A C57A C76U U78G C96G C123G U151C,≤ -4.2
9,U7A A30C G48A G70C C72A A89U C96U,≤ -4.2
10,U6G A73C C99U,≤ -4.2
11,U6C C54G U55A G94A C132U,≤ -4.2
12,U6C C57G C87G,≤ -4.2
13,U6C A19C A26G C85G C108A,≤ -4.2
14,U6G A19G C69G G88U C99G U145G,≤ -4.2
15,U6C G88A,≤ -4.2
16,U6C A19C G34A G59U A91G G141A,≤ -4.2
17,U6G C8G A49C C54U A91G C96G G141A,≤ -4.2
18,U6G A17G A26U G59C C96A G126C A137G,≤ -4.2
19,U6G,0.0167
20,U6C,-0.0891
21,U7A U9G A19U A47G G58A G92C G136A U148G,≤ -4.2
